# Laboratory results from ChEMBL document CHEMBL4888484, “Replenishing the malaria drug discovery pipeline: Screening and hit evaluation of the MMV Hit Generation Library 1 (HGL1) against asexual blood stage Plasmodium falciparum ,using a nano luciferase reporter read-out” (2022).
# Among all 150,000 compounds or so, about 540 (0.36%) showed an effect of 50% or more. The list shows a part of the results.
# Tested on: Plasmodium falciparum
# Assay: Primary screen in NF54 nanoGlo assay, in single point, at 2uM, 72h; a lower Z score goes with more inhibition
# Assay type: functional, Erythrocyte
# Settings: timepoint 72 hour
SMILES,% Inhibition [%],Z score
CCOc1ccc(CN2C[C@@H]3CC[C@H]2CN(Cc2cscn2)C3)cc1,-3,0.53
CCOC[C@@]12CCN(C(C)=O)C[C@@H]1CN(S(=O)(=O)c1cc(F)cc(F)c1)C2,-5,1
C[C@H]1CCCN(C(=O)c2c(NC(=O)c3cccnc3)sc3c2CCCC3)CC1,-8,1.05
Cc1cc2ncc3c(n2n1)CCN(C(=O)Nc1ccccc1F)C3,-2,0.25
CCCCCOCC(=O)N1CC2(CCOC(=O)N2)C1,8,-1.51
O=C(CN1CCN(c2ccccc2)C1=O)N1CC[C@H](Oc2cnccn2)C1,-2,0.28
O=c1sc(-c2ccccc2)cn1Cc1nccn1C(F)F,-11,1.28
CS(=O)(=O)Nc1nc(CCN2C(=O)c3ccccc3C2=O)cs1,-9,1.21
Cn1cnc2cc(C(=O)N3CCc4ccncc43)ccc21,-12,2.36
N#C[C@@H](NC(=O)CC(F)(F)F)c1ccc(F)cc1F,-11,1.1
COCc1noc(CNC(=O)C2(COC)CCC2)n1,0,-0.07
CN(C)[C@H]1CCCCN(Cc2cc3c(cc2Cl)OCO3)C1,-12,2.14
Cc1noc(C)c1CC(=O)Nc1cccc(Oc2cccnn2)c1,-13,1.83
Cc1nc(-c2cccs2)sc1C(=O)Nc1ccc2c(c1)OCO2,-2,0.35
O=C(C#Cc1ccccc1)N1CCC(C2(Cc3ccc(F)cc3)NC(=O)N(C3CCOC3)C2=O)CC1 (stereo not given),6,-0.77
COCCN(C)CC(=O)N1CCC2(CCCCCC2)C1,-17,2.39
Cc1csc(CN(C)CCCn2cccn2)n1,3,-0.47
O=C(NCc1ccc2c(c1)OCO2)N1CCOCC1CC(O)c1ccccc1 (stereo not given),-12,1.16
CC(NC(=O)C1CC(=O)N(Cc2cccc(C(F)(F)F)c2)C1)c1nnc2n1CCC2 (stereo not given),-7,0.64
Cc1ccc(OC2CCN(C(=O)c3ccccc3C(F)(F)F)CC2)nn1,-11,2.14
CN(CC(F)(F)F)C(=O)CNC(=O)c1cc(F)cc(Cl)c1O,39,-4.36
O=C(Nc1nc(Cc2ccccc2)ns1)c1cc(F)c(O)c(F)c1,7,-1.28

SMILES,% Inhibition [%],Z score
COc1ccccc1CS(=O)(=O)CC(=O)NC1CCCCCCC1,32,-3.26
CCN1CCCN(c2ccc(C(=O)Nc3ccccc3)nn2)CC1,5,-0.68
COc1cccc(-c2ncc[nH]2)c1OCCN1CCOCC1,2,-0.25
COCCC1(c2noc(-c3cccnc3)n2)CCN(CCCc2ccccc2)CC1,11,-1.4
Cc1cccc(C(=O)N(Cc2ccccn2)c2ccc(Cl)cc2)n1,-12,1.36
Cn1cc(-c2nc([C@@H]3CCCCCN3C(=O)c3cccc(C#N)c3)no2)cn1,-14,1.44
COc1ccccc1N1CCN(C(=O)C2CCN(S(=O)(=O)c3ccc(-c4ccn[nH]4)o3)CC2)CC1,-10,1.48
CCc1ccccc1NC(=O)c1cccnc1-c1ccc(C)s1,1,-0.18
CC(C)c1cc(C(=O)N2C[C@@H](CN3CCCN(C)CC3)[C@@H](CO)C2)cs1,-14,1.32
COc1ccc(N2C(=O)[C@H](CC(=O)N3CCc4cc(OC)c(OC)cc4C3)N=C2O)cc1,-7,0.95
CC(C)N(CC1CN(Cc2cccc(F)c2)CC1c1ccc(F)cc1)C(=O)c1ccc(F)cc1 (stereo not given),4,-0.62
C=C(C)COc1c(CN[C@@H](CO)c2ccccc2)cccc1OC,4,-0.67
O=C(CCC1CCCC1)N1CCC(n2cnc3cc(C(F)(F)F)ccc32)CC1,-9,1.02
Cc1cnn(CC2CCCN2C(C(N)=O)c2ccccc2)c1 (stereo not given),-1,0.23
O=S(=O)(Cc1ccccc1)N1CCC(c2noc(COCc3ccccc3)n2)CC1,-5,0.69
O=C1NCCN(Cc2nc3c(s2)CCCC3)C12CCCC2,-14,2.05
Cc1ccc(Cn2cccc2C(=O)C(=O)N(C)c2ccc(C)cc2)cc1,-6,0.59
COc1ccc(S(=O)(=O)NC2CCOC(C(C)C)C2)cc1Cl (stereo not given),-1,0.08
CC(C)Cc1nc(CCc2ccncc2)n(CC(C)(C)O)n1,-8,1.48
C[C@@H](CN(C)c1ccnc(N(C)C)n1)C(=O)O,-9,1.17
Cc1n[nH]cc1CN[C@@H](COc1ccccc1)c1ccccc1,2,-0.26
CCc1nn(C)cc1CN1CCOc2ccccc21,0,-0.03

SMILES,% Inhibition [%],Z score
O=C(NCCCc1ccccc1)c1ccc(CN2C(=O)NC3(CCOCC3)C2=O)cc1,-25,2.85
Cc1nnc(N2CCC(C(=O)NCc3cccc(F)c3)CC2)c2c(C)n(Cc3ccccc3)c(C)c12,0,-0.01
FC(F)(F)c1cnc(N2CC[C@H](N3CCOCC3)C2)s1,-2,0.23
CCOc1c(CNCCN(C)C)cccc1OC,6,-0.76
CCN(CC)CCS(=O)(=O)Nc1nc(OC)cc(OC)n1,-3,0.46
Cn1ccnc1C(=O)[C@@H](C#N)C(=O)c1cc2cc(F)ccc2o1,-5,0.58
N#Cc1cccc(C(=O)Nc2nc(-c3ccc4c(c3)CCCC4)cs2)c1,3,-0.27
OCC1(COc2ccccc2-c2nncn2-c2ccccc2)COC1,0,0.06
N#Cc1nccnc1NC1CCOC1c1ccccc1 (stereo not given),-7,1.06
OCC[C@H]1CN(Cc2nc3c(s2)CCCC3)CCN1Cc1cccs1,11,-1.4
O=C1OC2(CCN(CC[C@H]3CCOC3)CC2)CN1CCc1ccccc1,-16,3.11
CC1=NO[C@](C)(C(=O)N2CCN(C(=O)c3ccccc3)CC2)C1,-8,1.28
COc1ccc(CN(C(=O)Cc2c(C)n[nH]c2C)C2CCCC2)c(OC)c1,-4,0.73
O=C(NC[C@]1(CO)COCCN1Cc1ccccc1)c1nccc2ccsc12,-4,0.41
CC(C)(C)NC(=O)C[C@H]1COCCN1S(=O)(=O)N1CCc2ccccc2C1,-3,0.54
Cc1[nH]c(=O)c(C#N)c(C)c1CCC(=O)NS(=O)(=O)C1CCCCC1,-9,1.43
Nc1nc2c(c(N[C@H]3Cc4ccccc4[C@@H]3N)n1)CCCC2,9,-1.81
O=C(c1ccccc1)c1c(Cl)cccc1NS(=O)(=O)Cc1ccccc1,0,-0.05
O=C(NC1CC1c1cccc(F)c1)c1cccn1C1CC1 (stereo not given),-2,0.32
Cc1nc(Cn2cccc2C(=O)Nc2cccnc2)no1,-17,2.41
Cc1ccc(N2CCC(c3nnc(CN4CCN(C)CC4)n3C)CC2)nn1,-14,2.6
Cn1cccc1C(=O)NCCCn1cn[nH]c1=O,16,-2.1

SMILES,% Inhibition [%],Z score
CN1CCCC[C@@H]1CNC(=O)Nc1cc(F)cc(Cl)c1,-11,1.89
Cc1ccc(C)c(S(=O)(=O)N2CCC(N3CCN(Cc4ccc(F)cc4)C(=O)C3=O)CC2)c1,-4,0.56
CCCN(CC1CC1)C(=O)c1nn(CC2CC2)c2c1COCC2,-1,0.09
Cn1c(CN2CC(CO)(c3ccccc3)C2)nc2ccc(Cl)cc21,6,-1.17
C[C@H]1CCCN(CN2C(=O)C3(OCCO3)c3ccccc32)C1,-13,2.18
Cc1noc(C)c1Cc1n[nH]c(=O)n1CCc1ccccc1F,-13,1.45
Cc1cnc(-c2ccccc2CN(C)C)nc1N(C)C,-3,0.46
O=C(c1ccc[n+]([O-])c1)N1CCO[C@@H](CC(c2ccccc2)c2ccccc2)C1,-8,1.02
COCC(=O)NC1CN(S(=O)(=O)C2C[C@@H]3CC[C@H]2C3)C1 (stereo not given in full),-4,0.55
COc1ccc(CCNC(=O)CS(=O)(=O)c2ccc(Cl)cc2)cc1OC,3,-0.51
Cc1cc(NC(=O)[C@@H]2CCn3c(C(=O)c4ccccc4)ccc32)ccc1Br,29,-3.3
COCCc1noc(CCc2scnc2C)n1,-5,0.66
Cc1c(CNC2CCC(C)CC2)c(C(=O)O)c(C)n1Cc1ccccc1Cl (stereo not given),-4,0.51
C#CCN(CC)C(=O)c1ncoc1C(C)C,-39,4.58
Cc1nc(C)c(Cc2ccc(Cl)cc2)c(N2CCN(S(=O)(=O)c3ccc(Cl)cc3)CC2)n1,-9,1.23
CCCCN(C)c1ccc(S(C)(=O)=O)cc1S(=O)(=O)N(C)C,13,-1.82
O=C(CCc1cc(Br)ccc1OC(F)F)N1CC[C@H](N2C(=O)CNC2=O)C1,-2,0.38
CC(=O)N1CC(c2nc(CCOc3cccc(C)c3)no2)C1,-5,0.67
Cn1cc(CN2CC[C@]3(CNC(=O)C3)C2)c(C(F)F)n1,-8,1.09
